# In PubChem BioAssay AID1347165 (National Center for Advancing Translational Sciences (NCATS), 2019):
# In all, about 220,000 compounds went through this assay and about 5,700 (2.6%) were called active. Inconclusive means that the source gave no clear call. Such entries were picked first, then a sample of the others. Calls come from the whole dose curve; as a rule, active = well fitted inhibition curve with a large enough effect; inconclusive = small, poorly fitted or top-dose-only effect; inactive = no such curve, though single readings can be large or run the other way. A potency beside an inconclusive call is a rough fit, not a confirmed value.
# Biological target: Lysine-specific demethylase 5B (Homo sapiens) (UniProt Q9UGL1)
# UniProt Q9UGL1, sequence (Q9UGL1 whole entry, looked up): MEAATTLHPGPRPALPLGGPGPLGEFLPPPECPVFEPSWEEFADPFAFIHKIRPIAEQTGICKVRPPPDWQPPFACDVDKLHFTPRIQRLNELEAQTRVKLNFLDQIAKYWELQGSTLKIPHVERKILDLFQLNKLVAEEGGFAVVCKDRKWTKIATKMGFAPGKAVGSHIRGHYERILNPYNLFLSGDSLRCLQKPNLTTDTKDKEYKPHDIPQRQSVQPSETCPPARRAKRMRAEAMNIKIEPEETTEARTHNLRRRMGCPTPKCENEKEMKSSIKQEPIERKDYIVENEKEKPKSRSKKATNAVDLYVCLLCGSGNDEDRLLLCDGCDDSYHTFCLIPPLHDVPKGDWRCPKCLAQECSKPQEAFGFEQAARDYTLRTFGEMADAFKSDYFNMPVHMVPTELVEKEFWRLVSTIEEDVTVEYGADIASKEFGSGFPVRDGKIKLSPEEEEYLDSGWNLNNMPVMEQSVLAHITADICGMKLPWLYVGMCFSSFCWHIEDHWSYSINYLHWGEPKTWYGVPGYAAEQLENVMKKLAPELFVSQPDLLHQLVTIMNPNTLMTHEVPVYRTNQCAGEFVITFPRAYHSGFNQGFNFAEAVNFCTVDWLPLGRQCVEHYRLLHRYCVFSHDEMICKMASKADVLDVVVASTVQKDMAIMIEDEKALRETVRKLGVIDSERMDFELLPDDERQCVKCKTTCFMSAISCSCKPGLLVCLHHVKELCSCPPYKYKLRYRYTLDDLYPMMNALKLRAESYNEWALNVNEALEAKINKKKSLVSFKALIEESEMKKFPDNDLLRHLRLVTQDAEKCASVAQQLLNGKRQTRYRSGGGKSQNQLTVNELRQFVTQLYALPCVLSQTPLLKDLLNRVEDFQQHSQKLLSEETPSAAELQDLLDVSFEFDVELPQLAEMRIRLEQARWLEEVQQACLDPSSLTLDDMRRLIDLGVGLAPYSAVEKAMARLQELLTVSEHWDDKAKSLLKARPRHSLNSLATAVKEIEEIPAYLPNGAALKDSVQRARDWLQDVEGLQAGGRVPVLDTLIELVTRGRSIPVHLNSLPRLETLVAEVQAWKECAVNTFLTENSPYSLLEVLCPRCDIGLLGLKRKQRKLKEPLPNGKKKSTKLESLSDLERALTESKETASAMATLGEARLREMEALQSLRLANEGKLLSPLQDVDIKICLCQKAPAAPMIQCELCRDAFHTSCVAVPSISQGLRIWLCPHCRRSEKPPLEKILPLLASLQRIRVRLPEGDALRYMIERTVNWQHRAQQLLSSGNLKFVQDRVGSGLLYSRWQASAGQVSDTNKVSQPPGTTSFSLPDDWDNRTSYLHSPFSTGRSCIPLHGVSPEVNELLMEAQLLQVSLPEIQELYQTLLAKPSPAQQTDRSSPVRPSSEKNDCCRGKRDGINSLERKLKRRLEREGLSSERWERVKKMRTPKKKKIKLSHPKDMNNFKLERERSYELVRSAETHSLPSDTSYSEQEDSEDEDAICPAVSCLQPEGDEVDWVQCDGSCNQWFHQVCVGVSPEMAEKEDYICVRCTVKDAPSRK
# Test: Primary screen for KDM5B Histone Demethylases FDH-coupled qHTS; note: nearly all actives have a fitted effect of over 70% in size; for activity change, negative = inhibition: 0% is about no effect
# Conditions: FDH-coupled NADH fluorescence (FDH is formaldehyde dehydrogenase); activity change, negative = inhibition: at 57.7 µM (top of the series) unless noted
# Outline: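 Compound dilutions met 200 nM (final) KDM5BΔAP for 10 min at room temperature before substrate addition. The substrate mix held 12.5 µM H3K4me3 with cofactors 25 µM α-ketoglutarate and 50 µM Fe²⁺. NADH signal gain over 30 min defined activity.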
# Potency is the fitted concentration of half-maximal effect; tags give direction and shape of the fitted curve.
SMILES,"activity change, negative = inhibition",Potency
COc1ccc(-c2nc(CNC(=O)Nc3ccc(C)cc3Cl)c(C)o2)cc1,inactive: 29.1%,–
CC(C)(C)OC(=O)N1CCC(c2c(C(=O)NCc3ccccn3)cnn2-c2ccccc2)CC1,inconclusive: -32% [inhibitor],–
CSc1ccc(/C=C/C(=O)c2ccc(NC(=O)c3ccccc3)cc2)cc1,–,"inconclusive: 39.8 µM [inhibitor, single point]"
Cc1cn2nc(C(=O)Nc3ccc4c(c3)OCO4)cc2c(N2CCCC2)n1,–,"inconclusive: 25.1 µM [inhibitor, single point]"
COCCc1noc(CN(C)c2cc(C(C)C)nc3ccnn23)n1,–,"inconclusive: 14.1 µM [inhibitor, partial curve, poor fit]"
COc1ccc(C(=O)Nc2ccc(-c3nc4ncccc4o3)cc2)cc1,–,"inconclusive: 31.6 µM [inhibitor, partial curve, poor fit]"
Cn1cc(CN2C[C@@H]3C[C@H](C2)c2ccc(NC(=O)COc4ccccc4)c(=O)n2C3)c2ccccc21,–,active: 28.2 µM
CN1c2cccnc2CN(C(=O)Nc2ccc(Cl)cc2)CC[C@H]1CO,inactive: 1.28% [at 86.2 µM],–
CCOc1ccccc1CNC(=O)C(CC)n1nc(CC)n2c(cc3oc(C)cc32)c1=O (configuration not stated),–,"inconclusive: 20 µM [inhibitor, single point]"
CCC1c2ccsc2CCN1C(=O)COc1ccc2ccc(=O)oc2c1 (configuration not stated),–,"inconclusive: 17.8 µM [inhibitor, partial curve, poor fit]"
COc1ccc(OC)c(S(=O)(=O)NCCc2sc(-c3ccc(C)cc3)nc2C)c1,–,"inconclusive: 25.1 µM [inhibitor, partial curve, poor fit]"
CC[C@H]1CN(C(=O)Nc2cccc(OC)c2)CC[C@H]1CC(=O)N(C)CCC#N,–,"inconclusive: 35.5 µM [inhibitor, partial curve, poor fit]"
COc1ccc(-c2cn3c(n2)sc2cc(C(=O)NCc4ccccc4OC)ccc23)cc1,–,"inconclusive: 6.31 µM [inhibitor, partial curve, poor fit]"
CN(CCO)c1nc2c(c(=O)[nH]c(=O)n2C)n1Cc1ccccc1Cl,inactive: -11.8%,–
OC[C@@H]1CNC[C@H]1C1CCN(Cc2ccc(Br)s2)CC1,–,"inconclusive: 3.98 µM [inhibitor, partial curve, poor fit]"
CCCN(CCC)S(=O)(=O)c1c(C(=O)OCC)c(C)n(C)c1C,inactive: -1.18%,–
Cc1ncsc1CN1CC[C@@H]2C(=O)NCCCCCCN(Cc3ccncc3)[C@@H]2C1,–,"inconclusive: 22.4 µM [inhibitor, single point]"
NC(=O)[C@@H](Cc1c[nH]c2ccccc12)NC(=O)C1=C[C@@H](NS(=O)(=O)c2cccs2)[C@@H](O)[C@H](O)C1,–,"inconclusive: 20 µM [inhibitor, single point]"
CC1CCCN(S(=O)(=O)c2cc(C(=O)OCc3nc4ccccc4o3)ccc2Cl)C1 (configuration not stated),inactive: -32.8%,–
CCN(CC)c1ccc(NC(=O)CSc2nnc(C)c(=O)[nH]2)cc1,–,"inconclusive: 15.8 µM [inhibitor, partial curve, poor fit]"
CCCN(CCC)C(=O)CSc1nnc2cc(C)c3cc(C)cc(C)c3n12,–,"inconclusive: 17.8 µM [inhibitor, partial curve, poor fit]"

SMILES,"activity change, negative = inhibition",Potency
Cc1cccc(OCc2ccc(-c3nc(C#N)c(NCCN(C)C)o3)o2)c1,–,"inconclusive: 25.1 µM [inhibitor, single point]"
Cc1ccc(S(=O)(=O)c2cnc(SCC(=O)Nc3cc(C)cc(C)c3)nc2N)cc1,–,"inconclusive: 35.5 µM [inhibitor, partial curve, poor fit]"
Cc1ccc(S(=O)(=O)N2CCCN(C)c3ccccc32)cc1F,–,"inconclusive: 15.8 µM [inhibitor, partial curve, poor fit]"
COc1ccc2c(c1)c1c(c(=O)n(-c3ccccc3C)c(=O)n1CC(=O)NCc1ccc(C)cc1)n2C,–,"inconclusive: 4.47 µM [inhibitor, full curve, poor fit]"
CCCCc1ccc(-n2nc3cc(C)c(NC(=O)Cc4ccccc4)cc3n2)cc1,–,"inconclusive: 28.2 µM [inhibitor, partial curve, poor fit]"
Cc1ccccc1CNC[C@H]1Cn2cc(-c3ccccc3)nc2CO1,inactive: -21.4% [at 86.2 µM],–
Cc1cccc(-c2noc(-c3ccco3)n2)c1,inactive: 11.3%,–
COC[C@@H]1CN(c2cnccn2)C[C@H]1C(=O)NCc1ccccn1,–,"inconclusive: 25.1 µM [inhibitor, partial curve, poor fit]"
Cc1ccc(NC(C)c2nc3scc(-c4ccco4)c3c(=O)[nH]2)cc1C (configuration not stated),inactive: -17.2%,–
O=C(NC1CC1)c1cc(-c2ccccc2F)cc2c1OCCN2Cc1cccnc1,–,active: 31.6 µM
Cc1ccc(-c2onc(C)c2C)cc1S(=O)(=O)NCc1ccco1,–,"inconclusive: 0.708 µM [inhibitor, partial curve, poor fit]"
O=C(c1nnn2c1COC(c1ccc(Cl)cc1)C2)N1CCN(C(=O)c2c(F)cccc2F)CC1 (configuration not stated),inactive: -9.27%,–
COc1ccc(NC(=O)N2CCc3nc4cc[nH]n4c(=O)c3C2)cc1,–,"inconclusive: 28.2 µM [inhibitor, partial curve, poor fit]"
COc1ccc2cc(C(=O)O)sc(=O)c2c1OC,–,"inconclusive: 39.8 µM [inhibitor, single point]"
O=C(CCc1ccsc1)NC1CCSc2ccc(F)cc21 (configuration not stated),inactive: 13.3%,–
Cn1ccc2cc(S(=O)(=O)N3CCC(C(=O)NCCCN4CCOCC4)CC3)ccc21,inactive: 10.4%,–
CCn1c(=O)n(CC(=O)N(C)CC(=O)Nc2ccccc2Br)c2ccccc21,inactive: 15.1%,–
O=C(NCC1CCCCC1)c1cc2n(n1)CC(c1ccc(Cl)cc1)OC2 (configuration not stated),–,"inconclusive: 25.1 µM [inhibitor, partial curve]"
C=CCOC(=O)COc1cc(C)cc2oc(=O)cc(-c3ccccc3)c12,inactive: -0.484%,–
Cc1ccc(-c2nnc(Nc3cccc(Cl)c3)c3ccccc23)cc1S(=O)(=O)NCC1CCCO1 (configuration not stated),inconclusive: -57.2% [inhibitor] [at 11.5 µM],–
CC(C)c1ccc(CNC(=O)c2noc(-c3ccc[nH]c3=O)n2)cc1,–,"inconclusive: 3.55 µM [inhibitor, partial curve, poor fit]"
